Data reported in PubChem BioAssay AID488969 (Vanderbilt High Throughput Screening Facility, 2010).
Over roughly 110,000 compounds, “z-score” has its median near -0.1; the highest 2% begin near 2. This is one part of the list. Active and inactive are the calls of the source.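 How the source made its calls: active means z-score in the third read window above 3 or below -3; inactive means the rest.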

target: Metabotropic glutamate receptor 8 (Rattus norvegicus) (UniProt P70579); test: rat mGluR8 modulators via GIRK flux, primary screen, cell-based, thallium flux, HTS (AID 488969); conditions: HEK293 rat mGluR8, GIRK (G protein-gated inwardly rectifying potassium channel) thallium flux, FluoZin2; at 10 µM; stronger effect = higher value; submaximal glutamate (EC20) added with thallium
UniProt P70579, sequence (P70579 whole entry, looked up): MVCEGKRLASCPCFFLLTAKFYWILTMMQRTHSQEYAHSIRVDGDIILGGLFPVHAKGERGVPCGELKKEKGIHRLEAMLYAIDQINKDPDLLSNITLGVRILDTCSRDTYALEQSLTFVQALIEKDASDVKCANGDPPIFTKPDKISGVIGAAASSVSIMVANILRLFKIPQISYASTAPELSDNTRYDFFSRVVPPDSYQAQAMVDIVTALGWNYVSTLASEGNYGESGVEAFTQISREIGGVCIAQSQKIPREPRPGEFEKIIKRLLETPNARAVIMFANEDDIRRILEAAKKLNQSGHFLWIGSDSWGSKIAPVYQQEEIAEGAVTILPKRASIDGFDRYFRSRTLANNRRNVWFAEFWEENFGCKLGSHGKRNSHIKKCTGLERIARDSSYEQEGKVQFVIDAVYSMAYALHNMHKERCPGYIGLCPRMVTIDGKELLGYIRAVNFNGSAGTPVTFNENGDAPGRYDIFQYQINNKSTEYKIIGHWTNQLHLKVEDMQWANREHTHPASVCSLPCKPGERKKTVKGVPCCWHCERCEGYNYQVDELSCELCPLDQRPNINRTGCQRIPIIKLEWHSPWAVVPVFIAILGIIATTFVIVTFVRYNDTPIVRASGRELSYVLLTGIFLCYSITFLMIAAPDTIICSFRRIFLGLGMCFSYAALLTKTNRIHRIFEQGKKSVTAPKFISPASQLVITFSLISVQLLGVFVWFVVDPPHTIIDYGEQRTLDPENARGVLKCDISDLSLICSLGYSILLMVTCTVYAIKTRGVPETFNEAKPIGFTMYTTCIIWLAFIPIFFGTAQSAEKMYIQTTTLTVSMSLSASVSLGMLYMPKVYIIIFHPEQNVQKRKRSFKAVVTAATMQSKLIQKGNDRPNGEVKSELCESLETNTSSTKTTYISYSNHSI

| SMILES | z-score |
| --- | --- |
| O=S(=O)(c1cccc2nonc12)N1CCN(c2cccc(Cl)c2)CC1 | -0.0312 |
| CCOC(=O)C1=NNC(C(=O)c2ccc(C)cc2)C1c1ccc(OC)cc1 (stereo not drawn) | -0.111 |
| O=C(Cc1ccccc1)NC(=S)Nc1ccc2oc(-c3ccccc3F)nc2c1 | 0.222 |
| O=C(c1cn(-c2ccccc2)nc1-c1ccc(F)cc1)N1CCCCC1 | -0.391 |
| COc1ccc(C2=NN(CN3C(=O)C(=O)c4ccccc43)C(c3ccc(C)cc3)C2)cc1 (stereo not drawn) | -0.153 |
| CS(=O)(=O)Nc1nc2n(n1)C(c1ccccc1)C=C(c1ccc(Br)cc1)N2 (stereo not drawn) | -0.473 |
| Cc1nc2c3cc(F)ccc3n(Cc3ccccc3)c2s1 | 0.256 |
| O=C(CCCC(=O)OCC(Cl)=C(Cl)Cl)Nc1ccccc1F | -0.429 |
| CCCCCC(=O)N/N=C(\C)c1ccccn1 | -0.325 |
| O=C(NN1C(=O)c2ccccc2NC1c1ccccc1OCc1ccccc1)c1ccncc1 (stereo not drawn) | -0.127 |
| CCOc1ccccc1NC1c2ccccc2C(=O)N1c1ccc(C)cn1 (stereo not drawn) | -0.17 |
| Cc1ccc(C(=O)c2oc3nc(C)cc(C)c3c2N)cc1 | 0.126 |
| COc1cc(C(=O)NCCc2ccc3c(c2)OCCO3)ccc1OCC(=O)N1CCOCC1 | 0.0469 |
| Cn1c(N/N=C2\CCCc3ccccc32)nc2c1c(=O)n(Cc1ccc(F)cc1)c(=O)n2C | -0.145 |
| O=C(NCCO)c1ccccc1O | 0.211 |
| COc1ccc(-c2noc(-c3ccccc3C(=O)Nc3cccnc3)n2)cc1OC | 0.205 |
| Cc1nnc(C)n1/N=C/c1ccc(O)cc1 | -0.434 |
| CCc1ccc(C2=CC(c3cc(Br)ccc3F)n3ncnc3N2)cc1 (stereo not drawn) | -0.11 |
| O=c1c2sccc2n(Cc2cc(=O)n3ccccc3n2)c(=O)n1-c1ccccc1 | -0.407 |
| CC(=O)C1=C(Nc2ccc(C)cc2)CC(C)(O)C(C(C)=O)C1c1ccco1 (stereo not drawn) | -0.0902 |
| Cc1ccc(NC(N)=S)cc1C | -0.134 |
| O=[N+]([O-])c1ccc(/C=N/Nc2nc(N3CCCCCC3)nc(N3CCCCCC3)n2)o1 | -0.242 |

| SMILES | z-score |
| --- | --- |
| O=CN1CCN(C(=O)COc2ccc(Cl)cc2Br)CC1 | -0.129 |
| CCCCn1c(SCC(=O)/C(C#N)=C(\C)N)nc2ccccc2c1=O | active: 5.63 |
| CCOc1cc(/C=N/O)cc(Cl)c1OC | -0.446 |
| Cc1ccc(CCNC(=O)C2CCC(=O)N2C2CCCC2)cc1 (stereo not drawn) | 0.531 |
| COc1ccc(C)cc1S(=O)(=O)N(C)CC(=O)N1CCN(C)CC1 | -1.59 |
| CCC1(C)NC(=O)N(CC(=O)Nc2sc3c(c2C(=O)OC)CCCCC3)C1=O (stereo not drawn) | -0.222 |
| CN(C)/C=N/C(=S)Nc1ccccc1F | 0.0261 |
| COc1cc(OC)cc(-c2nc3nc(C)c(CCC(=O)O)c(C)n3n2)c1 | -0.302 |
| O=C(NCc1cccs1)C1CCC(CNS(=O)(=O)c2ccc(Br)s2)CC1 (stereo not drawn) | -0.263 |
| c1ccc(-c2ccccc2-c2nc(-c3ccncc3)no2)cc1 | -0.475 |
| COc1ccc(NC(C(=O)Nc2cccc(C(C)=O)c2)c2ccccc2)cc1 (stereo not drawn) | -0.108 |
| O=C(Nc1ccccc1Cl)N1CCN(c2ccc3nnc(-c4ccccc4)n3n2)CC1 | -0.661 |
| C/C(N)=C(/C#N)C(=O)CSc1nnc(-c2ccccc2Br)o1 | -0.333 |
| CS(=O)(=O)N(CC(=O)NCc1ccncc1)c1ccc(Cl)c(Cl)c1 | -0.214 |
| CC(C(=O)Nc1ccccc1)c1ccc(-c2ccccc2)c(F)c1 (stereo not drawn) | -0.0839 |
| O=c1[nH]c(-c2ccc(F)cc2)nc2c1sc(=S)n2-c1ccccc1 | -0.202 |
| CSc1nc(N)c(C#N)c(-c2ccccc2Cl)c1C#N | -0.153 |
| CC1(C)C2CCC1(CS(=O)(=O)Nc1ccc(S(=O)(=O)NC3CCCCC3)cc1)C(=O)C2 (stereo not drawn) | -0.219 |
| N#CC1(C#N)[C@@H](C(=O)C23CC4CC(CC(C4)C2)C3)C12CCOCC2 | -0.244 |
| COC(=O)C1=C(C(=O)OC)SC2(S1)C(C(=O)OC)=C(C(=O)OC)SC1=C2c2cccc(C)c2NC1(C)C | -0.103 |
| O=C(CSc1ncn[nH]1)NC12CC3CC(CC(C3)C1)C2 | -0.299 |
| Clc1nc(-c2ccccn2)nc2scc(-c3ccccc3)c12 | 0.138 |

| SMILES | z-score |
| --- | --- |
| CCOC(=O)c1sc(N)c(C#N)c1COC(=O)CNC(=O)c1ccccc1 | -1.18 |
| Oc1ccccc1-c1nnc(COc2ccc(Cl)cc2Cl)o1 | -0.566 |
| O=C(NCCNc1ccc([N+](=O)[O-])cc1)c1ccccc1Br | -0.315 |
| O=C(c1cccs1)n1nc(-c2ccc(Cl)cc2)nc1NCc1ccco1 | 0.732 |
| O=C(NCN1C(=O)C2C3C=CC(C3)C2C1=O)Nc1cccnc1 (stereo not drawn) | 0.331 |
| CN/C=C1\C(=O)C(C)(C)Oc2ccc3ccc(=O)oc3c21 | -0.738 |
| CC(=O)C1=C(O)C(=O)N(Cc2ccccc2)C1c1ccccc1F (stereo not drawn) | -1.22 |
| CCCCCCC(c1c(C)n(C)n(-c2ccccc2)c1=O)c1c(C)n(C)n(-c2ccccc2)c1=O | -1.19 |
| COc1ccccc1NC(=O)C1=C(C)NC(SCC(=O)c2ccccc2)=C(C#N)C1c1ccco1 (stereo not drawn) | 0.838 |
| CCC(c1nnnn1Cc1ccco1)N(CCc1ccccc1)Cc1cc2cccc(C)c2[nH]c1=O (stereo not drawn) | 0.382 |
| COc1ccc(Cl)cc1S(=O)(=O)N1CCN(C(=O)c2cc(OC)c(OC)c(OC)c2)CC1 | 0.0484 |
| O=C(c1ccc(Cl)cc1)c1cnc(-c2ccccc2)s1 | -0.129 |
| CN(Cc1ccccc1)C(=O)CN(c1ccc(F)cc1)S(=O)(=O)c1ccc2c(c1)OCCO2 | -0.317 |
| O=C(Nc1ccccc1)N1CC=C(c2ccccc2)CC1 | 0.288 |
| CC(=O)NCc1c(Cl)cccc1-n1cccc1 | 0.18 |
| COc1ccccc1N1CCN(S(=O)(=O)c2ccccc2)CC1 | -0.0523 |
| COc1ccc(S(=O)(=O)N(CC(=O)Nc2ccc(S(=O)(=O)N3CCOCC3)cc2)Cc2ccc(F)cc2)cc1 | -0.0915 |
| CCOC(=O)NCc1ccc(S(=O)(=O)Nc2c(C)cccc2C)cc1 | 0.515 |
| O=C(CCCc1ccccc1)NCc1ccc(F)cc1 | 0.138 |
| COc1ccc(CC(=O)NC(C)c2nnc(SCc3nc4ccccc4c(=O)[nH]3)n2C)cc1 (stereo not drawn) | 0.542 |
| C[C@H](NC(=O)c1ccccc1Cl)C(=O)OCC(=O)N1CC2(C)CC1CC(C)(C)C2 (stereo partly drawn) | 0.00588 |
| c1cncc(-c2nc3ccccc3[nH]2)c1 | -0.186 |

| SMILES | z-score |
| --- | --- |
| Cc1cc(SCC(=O)OCC(=O)N2CCN(C(=O)c3ccco3)CC2)c(C)cc1Br | -0.417 |
| COc1ccc(C(=O)C[n+]2ccc(C)cc2)cc1 | -0.262 |
| O=C(Cn1nc(-c2ccccc2)ccc1=O)NCC1COCCO1 (stereo not drawn) | 0.993 |
| O=C(c1cccc(Cl)c1Cl)N1CCN(c2ccccn2)CC1 | 0.285 |
| COc1ccc(NC(=O)C23CC4CC(C2)CC(n2cnc(Br)n2)(C4)C3)c(C)c1 | 0.0432 |
| O=C(c1ccco1)N1CCN(S(=O)(=O)Cc2ccc(Cl)cc2)CC1 | -0.261 |
| CCOc1ccc(-n2cc(C(=O)N3CCN(C)CC3)c3cc(OC)c(OC)cc3c2=O)cc1 | -0.207 |
| COc1cccc(Nc2nc(NCC3CCCO3)c3ccccc3n2)c1 (stereo not drawn) | 0.458 |
| CN(Cc1ccccc1)Cc1c(F)cccc1F | 0.236 |
| Cc1ccc(NS(=O)(=O)c2ccc(OCC(=O)N3CCOCC3)cc2)cc1 | 0.0793 |
| CC(C)c1ccccc1N=C1SCCN1C1CCS(=O)(=O)C1 (stereo not drawn) | 0.193 |
| C=CCN1C(=O)C(O)(CC(=O)c2ccc(-n3cccc3)cc2)c2ccccc21 (stereo not drawn) | 0.0333 |
| Cc1ccc(-c2nc(-c3cccnc3)no2)cc1 | 0.348 |
| CCCCC(=O)c1ccc(O)cc1 | 0.0642 |
| COc1cccc2c(=O)n(CC(=O)N3CCN(c4ccccc4)CC3)ccc12 | -0.385 |
| Cc1ccccc1-n1c(O)c(/C=C/C=Nc2ccccc2)c(=O)[nH]c1=O | 0.127 |
| O=C(O)c1ccc(CSc2nnc(SCc3ccccc3)s2)cc1 | -0.1 |
| COc1ccc(N2CCN(C(=O)c3ccc(N4C(=O)NC5CC4(C)Oc4ccccc45)cc3)CC2)cc1 (stereo not drawn) | 0.106 |
| COc1ccc(-c2nc(CS(=O)CC(=O)NCC3CCCO3)c(C)o2)cc1 (stereo not drawn) | -0.042 |
| COc1ccc(/C=C/C(=O)O)cc1COc1cccc(C)c1 | 0.0229 |
| Cn1c(=O)c2c(nc(OCc3ccccc3)n2C)n(C)c1=O | -0.335 |
| Cc1cc(S(=O)(=O)Nc2c(C(=O)O)[nH]c3ccccc23)ccc1F | -0.226 |

| SMILES | z-score |
| --- | --- |
| CCOC(=O)c1cc(CC)sc1NC(=O)c1cc(OC)c(OC)c(OC)c1 | 0.399 |
| Cc1ccc2c(c1)N(C(=O)NC1CCCCC1)C(C)(C)CC2C (stereo not drawn) | 0.222 |
| Cc1ccc([N+](=O)[O-])cc1-c1ccc(/C=N\n2nnnc2N)o1 | -0.0548 |
| Cc1ccc(C(C(=O)NCc2ccco2)N(C(=O)CNC(=O)c2cccs2)c2c(C)cccc2C)cc1 (stereo not drawn) | 0.069 |
| Cc1cccn2cc(-c3ccccc3)nc12 | 0.976 |
| FC(F)(F)c1cccc(-c2nnc3ccc(C(F)(F)F)cn23)c1 | 0.312 |
| COC(=O)c1cn(NC(=O)c2cccc(N(C)C)c2)c(=O)c2ccccc12 | -1.54 |
| COCCNC(=O)Cn1ncc2ccsc2c1=O | 2.25 |
| Cc1ccc(S(=O)(=O)N2CCC(O)(c3cccnc3)CC2)cc1 | -0.435 |
| O=C(c1cccs1)N1CCCC(c2ccccc2)C1 (stereo not drawn) | -0.536 |
| COc1ccc2nc(C(F)(F)C(F)(F)F)c(C#N)c(N)c2c1 | -0.334 |
| Cc1ccc(C(=O)CSc2nnc(-c3ccccc3N)n2C)cc1C | -0.127 |
| COc1cc2c(cc1NC(=O)COC(=O)C1CC(=O)N(Cc3ccco3)C1)oc1ccccc12 (stereo not drawn) | -1.09 |
| CC(C)(C)C(=O)Nc1cccc(C(=O)Nc2cc(C(=O)O)cc(C(=O)O)c2)c1 | -0.111 |
| CC1CN(C(=O)c2nn(C)cc2[N+](=O)[O-])CC(C)O1 (stereo not drawn) | -0.227 |
| Cc1[nH]c2ccccc2c1C1C(c2ccccc2)=NN=C(C(C)C)N1O (stereo not drawn) | -0.181 |
| COc1ccc(Cl)cc1NC(=O)CC(C)=O | 1.03 |
| CCOC(=O)c1cc2c(ccn2C)n1CC(=O)N1CCN(c2cccc(C(F)(F)F)c2)CC1 | 0.889 |
| CCOC(=O)Cn1c(=NC(=O)c2cccs2)sc2cc(C(=O)OC)ccc21 | -0.0251 |
| O=c1cc(CN2CCN(c3ccc(F)cc3)CC2)c2cc3c(cc2o1)CCCC3 | 0.252 |
